# From publication PMC6919601, “Identification of Plasmodium dipeptidyl aminopeptidase allosteric inhibitors by high throughput screening” (PLoS ONE, 2019)
# In all, about 110,000 compounds went through this assay and about 230 (0.21%) showed an effect of 50% or more. Some of the results follow.
# Target: DPAP1 (Plasmodium falciparum, UniProt Q8IIJ9)
# Assay: primary screen, percent inhibition; read by cleavage of a fluorogenic dipeptide substrate; higher = more effect of the substance
# Set-up: species or system P. falciparum D10 trophozoite lysates; single well
# 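Further: 30 min substrate incubation versus DMSO and 10 µM JCP410 controls.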
# DPAP1, sequence (Q8IIJ9 whole entry, looked up): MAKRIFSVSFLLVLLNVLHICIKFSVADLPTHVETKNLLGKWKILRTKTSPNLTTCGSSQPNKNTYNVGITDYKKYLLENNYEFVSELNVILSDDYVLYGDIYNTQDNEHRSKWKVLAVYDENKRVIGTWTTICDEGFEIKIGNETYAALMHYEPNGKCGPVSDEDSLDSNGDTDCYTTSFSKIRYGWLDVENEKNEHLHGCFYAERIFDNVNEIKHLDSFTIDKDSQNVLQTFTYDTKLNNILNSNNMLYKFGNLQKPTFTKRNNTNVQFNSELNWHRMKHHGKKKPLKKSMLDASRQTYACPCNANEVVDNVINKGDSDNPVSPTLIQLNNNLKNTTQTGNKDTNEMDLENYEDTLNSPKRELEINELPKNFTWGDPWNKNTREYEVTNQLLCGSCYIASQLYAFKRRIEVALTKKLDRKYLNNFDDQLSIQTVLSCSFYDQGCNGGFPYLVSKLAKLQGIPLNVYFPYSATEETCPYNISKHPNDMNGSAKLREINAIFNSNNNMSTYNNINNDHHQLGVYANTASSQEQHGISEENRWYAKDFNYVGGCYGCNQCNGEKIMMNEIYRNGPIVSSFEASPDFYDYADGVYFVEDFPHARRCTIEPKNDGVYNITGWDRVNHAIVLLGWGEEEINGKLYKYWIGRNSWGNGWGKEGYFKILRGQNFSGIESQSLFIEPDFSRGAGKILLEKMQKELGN
row,SMILES,% Inhibition @ 10 uM [%]
1,CCOC(=O)c1c(S(=O)(=O)N(Cc2ccccc2)C(C)C)c(C)n(C)c1C,4.85
2,O=C(COc1ccc(Br)cc1)Nc1ccc(F)cc1F,2.13
3,CCn1c2ccccc2c2cc(CNc3ccc(C)c(C)c3)ccc21,1.84
4,O=C(NCc1ccco1)c1cc2ccccc2c(=O)o1,-8.71
5,COc1ccc(Cl)cc1S(=O)(=O)N1CCc2ccccc2C1CN1C(=O)c2ccccc2C1=O (stereo not shown),1.88
6,COc1ccc(Cn2c(C(=O)O)c(CNCc3ccc(F)cc3)c3ccc(OC)cc32)cc1,-0.677
7,COCC(=O)NCCc1nc2ccccc2n1Cc1c(F)cccc1Cl,2.83
8,Cc1ccc(N2C(=O)c3ccccc3C2=O)nc1,0.708
9,Cc1ccc(N2CC(C(=O)NCCO)CC2=O)cc1 (stereo not shown),-3.23
10,Cc1cc(N2C(=O)CSC23C(=O)Nc2ccccc23)ccc1Br (stereo not shown),-1.79
11,C=C(C)Cn1c(SCCCc2ccccc2)nc2c1c(=O)[nH]c(=O)n2C,-2.24
12,CC(C)C(CO)NC(=O)CC(=O)NC(CO)C(C)C (stereo not shown),-8.09
13,Cc1noc(C(=O)N2CCOCC2)c1Cl,-0.0115
14,Cc1nccc2nc(O)c(C(=O)NCc3ccc4c(c3)OCO4)cc12,-0.971
15,Cc1ccc2c(c1C)N[C@@H](c1ccc(S(=O)(=O)N3CCOCC3)cc1)[C@H]1CC=C[C@@H]21,-0.48
16,Cc1nc2c(c(C)nn2C)c(C)c1CCC(=O)N1CCC(C)CC1,-4.47
17,COc1cccc(OC)c1C(=O)N1CCN(C(=O)c2c(OC)cccc2OC)CC1,23.8
18,Cc1onc(-c2ccccc2)c1C(=O)NC1CC1,-7
19,CCC(=O)n1nc(-c2cccnc2)nc1NCc1cccs1,0.558
20,COc1ccc(CN2CCN(C(=O)C3CC(=O)N(C4CCCCCC4)C3)CC2)c(OC)c1OC (stereo not shown),6.32
21,Cc1ccccc1S(=O)(=O)Cc1ccc(C(=O)NCCN(Cc2ccccc2)C(C)C)o1,5.34
22,O=C(NC1CCCc2ccccc21)C1CCCN(c2nnc(N3CCCC3=O)s2)C1 (stereo not shown),-6.58
23,CCOc1ccc(CCNC(N)=O)cc1OCC,4.88
24,N#Cc1conc1-c1ccc(Cl)cc1Cl,-7.02
25,CC(=O)c1ccc(NC(=O)c2cnn3c(C(F)(F)F)cc(-c4ccco4)nc23)cc1,-4.62
26,CC(C)(C)c1ccc(C2C(C#N)=C(N)Oc3ncnc(O)c32)cc1 (stereo not shown),5.18

row,SMILES,% Inhibition @ 10 uM [%]
1,Cc1cc(NC2CC2)n2cnnc2n1,-2.57
2,C=CCn1c(CCCNC(=O)COc2ccccc2)nc2ccccc21,7.85
3,Cc1sc(C)c(-c2cccs2)c1-c1cccs1,-3.65
4,CC(C)C[C@H](NC(=O)OCc1ccccc1)C(=O)NC1(C#N)CCN(C2CC2)CC1,-3.48
5,COc1ccc(OC)c(C2C(C#N)=C(N)Oc3c2c(C)nn3-c2cccc(Cl)c2)c1 (stereo not shown),1.01
6,O=C1c2cccnc2C(=O)N1Cc1ccc(S(=O)(=O)N2CCCN(Cc3ccc(F)cc3)C2)cc1,-6.49
7,COc1ccc(S(=O)(=O)N2CCN(Cc3ccc4c(c3)OCO4)CC2)c(Cl)c1Cl,2.95
8,Cc1[nH]c2ccccc2c1CCNC(=S)NC1CCCCC1,-5.79
9,C=CCNc1nc(-c2ccncc2)cs1,-8.19
10,OC1CCN(Cc2cccc(F)c2)CC1,-1.93
11,COCCCNC(=O)CCSc1ccc(C)cc1,22.8
12,CCCc1cc(=O)oc2cc(O)ccc12,-0.744
13,CCOc1ccc(NC(=O)c2ccc(C(=O)O)cc2C(=O)O)cc1,4.08
14,CCCn1c(=O)c2sccc2n2c(CCCC(=O)NCc3cccnc3)nnc12,5.22
15,CC12CN3CC(C)(CN(C1)C3c1cc(Br)ccc1O)C2 (stereo not shown),2.6
16,Cc1cc(C)n(-c2cc(O)c(-n3nc(C)cc3C)cc2O)n1,-5.63
17,COc1cccc(OC)c1C(=O)Nc1nnc(C2CCCCC2)s1,0.222
18,CC(/N=c1/c(-c2ccc(Cl)cc2)c(O)c1=O)c1ccc2c(c1)OCCO2 (stereo not shown),0.967
19,O=C(NCCc1ccc(Cl)cc1)C1C2C=CC3(CN(Cc4ccccc4Cl)C(=O)C13)O2 (stereo not shown),6.2
20,COc1ccc(CN2C(=O)c3cccnc3C2=O)cc1S(=O)(=O)NCc1ccc2c(c1)OCO2,-4.02
21,O=C(Nc1ccc2[nH]ncc2c1)/C(=C/c1ccccc1)NC(=O)c1ccccc1,-0.996
22,CCOc1cccc(C2C(C(=O)c3ccc(C)o3)=C(O)C(=O)N2Cc2ccccc2)c1 (stereo not shown),-5.26
23,CN1CCN(S(=O)(=O)c2ccc3ncc(C(=O)O)c(O)c3c2)CC1,-0.657
24,Cc1noc2ncnc(NCCc3ccsc3)c12,-2.71
25,Cc1ccc(S(=O)(=O)N=C(N)N)cc1,3.96
26,Cc1ccccc1CNC(=O)C(C)SCc1ccccc1 (stereo not shown),1.35
